Test results reported in ChEMBL document CHEMBL4888484, “Replenishing the malaria drug discovery pipeline: Screening and hit evaluation of the MMV Hit Generation Library 1 (HGL1) against asexual blood stage Plasmodium falciparum ,using a nano luciferase reporter read-out” (2022).
Hit rate of the full screen: of about 150,000 compounds, about 540 (0.36%) showed an effect of 50% or more. Some of the results follow.

Tested on: Plasmodium falciparum
Assay: Primary screen in NF54 nanoGlo assay, in single point, at 2uM, 72h; a lower Z score goes with more inhibition
Type: functional, Erythrocyte
Conditions: timepoint 72 hour

Question: How did the “% Inhibition” value turn out when `Cc1ccn2c(CN(C)CCc3ccncc3)cnc2c1` was run?
Answer: Its value is -5%.

Question: What about the Z score of the same compound?
Answer: Its Z score is 0.55.

Question: What does the source list for `c1cn(CCCn2nccc2C2CC2)c(-c2cc3n(n2)CCCNC3)n1`?
Answer: % Inhibition: -12%; Z score: 1.58

Question: For `Cc1ccc(S(=O)(=O)N(C)c2cccc(C(=O)N(C)C3CCCCC3O)c2)cc1` (stereo not drawn), which “% Inhibition” value is on record?
Answer: The value was -7%.

Question: And the Z score?
Answer: Its Z score is 0.97.

Question: For `CCN1CCC[C@H](NS(=O)(=O)c2cnn(CC)c2)C1`, which “% Inhibition” value is on record?
Answer: The value was -1%.

Question: And the Z score?
Answer: Its Z score is 0.13.

Question: `Cc1nc(C)c(CC(=O)Nc2ccc(C)c(Cl)c2)c(=O)[nH]1` was tested. Which “% Inhibition” value did it give?
Answer: The value was -6%.

Question: What about the Z score of the same compound?
Answer: Its Z score is 1.23.

Question: Which “% Inhibition” value does the source give for `Cc1cc(C)cc(C(=O)N2CCCN(c3nc4c(s3)c(C)nn4-c3ccc(F)cc3)CC2)c1` here?
Answer: Its value is -7%.

Question: And the Z score?
Answer: Its Z score is 1.22.

Question: Which results are given for `O=C(Nc1cnoc1)c1ccc(Oc2ccccc2)cc1`?
Answer: % Inhibition: -14%; Z score: 2.12

Question: Which results are given for `O=C(Nc1ccn2ccnc2c1)NC1CC2CC2C1` (stereo not drawn)?
Answer: % Inhibition: 3%; Z score: -0.56

Question: With `Cc1cc(=O)c(C(=O)N2CCN(C)CC2)c(CCc2ccccc2)n1Cc1ccncc1` as the compound, how does the “% Inhibition” value read?
Answer: Its value is -6%.

Question: What about the Z score of the same compound?
Answer: The Z score was 0.68.

Question: `CCC=CCCn1cnc2[nH]ccc2c1=O` was tested. Which “% Inhibition” value did it give?
Answer: The value was 6%.

Question: And the Z score?
Answer: The Z score was -1.14.

Question: `COc1cc(C(=O)NC[C@H]2CCCN(CC(C)C)C2)ncn1` was tested. Which “% Inhibition” value did it give?
Answer: Its value is 1%.

Question: And the Z score?
Answer: Its Z score is -0.16.

Question: `CCN(CC)CCN(CC(C)C)S(=O)(=O)c1ccccc1OC` was tested. Which “% Inhibition” value did it give?
Answer: Its value is -13%.

Question: And the Z score?
Answer: Its Z score is 1.89.

Question: For `Cc1c(CN2CCC3(CC2)C(=O)NCCCN3C)[nH]c2ccc(F)cc12`, which “% Inhibition” value is on record?
Answer: The value was -12%.

Question: And the Z score?
Answer: Its Z score is 1.88.

Question: Which “% Inhibition” value does the source give for `CC(C)n1c(=O)c2sc(N3CCCCC3)nc2n(CC(=O)Nc2ccccc2)c1=O` here?
Answer: The value was -7%.

Question: And the Z score?
Answer: The Z score was 0.64.

Question: For `CC(C)N(CC(N)=O)C(=O)C1C(C)C1(F)F` (stereo not drawn), which “% Inhibition” value is on record?
Answer: Its value is -2%.

Question: And the Z score?
Answer: The Z score was 0.16.

Question: With `Cc1ncsc1CN(C[C@H](O)c1ccccc1)C1CC1` as the compound, how does the “% Inhibition” value read?
Answer: The value was 5%.

Question: What about the Z score of the same compound?
Answer: Its Z score is -0.6.

Question: Which results are given for `O=C(CN1CC(=O)Nc2ccccc21)Nc1ccc(F)c(F)c1`?
Answer: % Inhibition: -34%; Z score: 4

Question: How did the “% Inhibition” value turn out when `COc1cc(NC(=O)c2cnn(-c3c(C)cccc3C)c2C2CCN(C(=O)OC(C)(C)C)CC2)cc(OC)c1` was run?
Answer: Its value is -3%.

Question: And the Z score?
Answer: Its Z score is 0.32.

Question: For `CC(C)[C@H](C)N(Cc1nnsc1Cl)C1CC1`, which “% Inhibition” value is on record?
Answer: The value was -7%.

Question: What about the Z score of the same compound?
Answer: The Z score was 0.69.

Question: For `Cc1nc(C)c(CN2CCC[C@H](O)C2)s1`, which “% Inhibition” value is on record?
Answer: Its value is -14%.

Question: And the Z score?
Answer: Its Z score is 1.64.

Question: What does the source list for `CCc1c(C)c(C(=O)NCc2ccccn2)n(Cc2cccc(C(F)(F)F)c2)c1C`?
Answer: % Inhibition: -1%; Z score: 0.08

Question: Which “% Inhibition” value does the source give for `C=C(C)C(C)(C)C(=O)N[C@H]1CCOC[C@@H]1OCC1CC1` here?
Answer: Its value is -18%.

Question: And the Z score?
Answer: Its Z score is 3.42.

Question: With `CNC(=O)N[C@@H](Cc1ccc(F)cc1)C(C)C` as the compound, how does the “% Inhibition” value read?
Answer: Its value is 29%.

Question: And the Z score?
Answer: Its Z score is -3.26.

Question: Which “% Inhibition” value does the source give for `CC(C)c1nccc(NCCCn2ccnc2)n1` here?
Answer: Its value is -7%.

Question: And the Z score?
Answer: Its Z score is 0.65.

Question: Which “% Inhibition” value does the source give for `Cc1noc(C)c1CC(=O)N1CCC(c2nnc(-c3ccc(F)cc3)o2)CC1` here?
Answer: The value was -5%.

Question: And the Z score?
Answer: The Z score was 0.53.

Question: How did the “% Inhibition” value turn out when `C[C@@H](c1cccnc1)N(C)Cc1cccc2[nH]ccc12` was run?
Answer: The value was -8%.

Question: And the Z score?
Answer: The Z score was 0.94.

Question: With `COC(=O)c1cc(CN)cc(NC(=O)c2cccc(OC)c2)c1` as the compound, how does the “% Inhibition” value read?
Answer: The value was 4%.

Question: And the Z score?
Answer: The Z score was -0.66.

Question: Which “% Inhibition” value does the source give for `COc1cncc(C(=O)N2CCCc3cc(S(C)(=O)=O)ccc32)n1` here?
Answer: The value was 39%.

Question: What about the Z score of the same compound?
Answer: The Z score was -4.38.

Question: What does the source list for `Cn1cc(-c2ccc(-c3cnco3)s2)cn1`?
Answer: % Inhibition: -6%; Z score: 0.8

Question: `c1cnc2nc(N3CC4CCC3C4)ccc2n1` (stereo not drawn) was tested. Which “% Inhibition” value did it give?
Answer: Its value is -12%.

Question: What about the Z score of the same compound?
Answer: Its Z score is 1.34.

Question: Which results are given for `CCn1cc(-c2ccc(C)cc2)cc1C(=O)N1CCOCC1`?
Answer: % Inhibition: 8%; Z score: -1.29

Question: With `Oc1ccc2ccccc2c1C1Nc2cccc3cccc(c23)N1` as the compound, how does the “% Inhibition” value read?
Answer: The value was -3%.

Question: What about the Z score of the same compound?
Answer: Its Z score is 0.59.

Question: `Cc1ccc(C(=O)Nc2ccc(N3CCC(N(C)CCCOC(C)C)CC3)c(C(=O)O)c2)cc1` was tested. Which “% Inhibition” value did it give?
Answer: The value was -19%.

Question: And the Z score?
Answer: The Z score was 1.72.

Question: What does the source list for `CCN1CCC[C@@]2(CCN(C(=O)c3c(C)n[nH]c3C3CC3)C2)C1=O`?
Answer: % Inhibition: -9%; Z score: 1.76

Question: How did the “% Inhibition” value turn out when `CC1CC(Nc2cccc3c2CN(C)C3=O)c2nccn21` (stereo not drawn) was run?
Answer: The value was 0%.

Question: What about the Z score of the same compound?
Answer: The Z score was 0.05.

Question: Which results are given for `Cc1cc(COc2cc(F)ccc2F)on1`?
Answer: % Inhibition: 34%; Z score: -3.83

Question: `CN(Cc1ccccc1)C(=O)N1CCN(C(=O)C#Cc2ccc3c(c2)OCO3)CC1` was tested. Which “% Inhibition” value did it give?
Answer: The value was 3%.

Question: And the Z score?
Answer: Its Z score is -0.45.

Question: `Cc1c([C@H](C)NC(=O)c2cc(=O)[nH]c(=O)[nH]2)cnn1-c1cccc2ccccc12` was tested. Which “% Inhibition” value did it give?
Answer: Its value is -20%.

Question: And the Z score?
Answer: The Z score was 1.77.

Question: Which “% Inhibition” value does the source give for `Cc1cc(F)ccc1CN1CC(N2CCNC2=O)C1` here?
Answer: Its value is -8%.

Question: What about the Z score of the same compound?
Answer: The Z score was 1.24.

Question: With `O=C(CCC1CCCC1)N1C2C=CCC1CC2` (stereo not drawn) as the compound, how does the “% Inhibition” value read?
Answer: The value was -3%.

Question: And the Z score?
Answer: Its Z score is 0.36.

Question: What does the source list for `Cc1nnc(CNC(=O)c2c(C)c3cccc(C)c3n2C)o1`?
Answer: % Inhibition: 2%; Z score: -0.25

Question: For `Cc1csc(=O)n1CCc1nc(C2CCCCCC2)no1`, which “% Inhibition” value is on record?
Answer: The value was -9%.

Question: And the Z score?
Answer: Its Z score is 1.27.

Question: `Cc1oc(-c2ccccc2F)nc1CN(Cc1ccccc1)C[C@@H]1CCC(=O)N1` was tested. Which “% Inhibition” value did it give?
Answer: The value was 6%.

Question: And the Z score?
Answer: The Z score was -0.89.

Question: How did the “% Inhibition” value turn out when `Cc1n[nH]c(C)c1S(=O)(=O)Nc1ccccc1Cc1ccccc1` was run?
Answer: Its value is 2%.

Question: And the Z score?
Answer: Its Z score is -0.28.
